Test results taken from paper PMC4336329 (PLoS ONE, 2015).
Among all 310,000 compounds or so, about 14,000 (4.5%) showed an effect of 50% or more. The effect is printed as a negative number. The list shows a part of the results.

These compounds were tested against human ether-à-go-go-related gene (hERG) potassium channel (human, UniProt Q12809) (assay: primary screen, population patch clamp on CHO cells stably expressing hERG).
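Note: peak tail current of the secondary pulse compared with the same well before compound.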

Chain of human ether-à-go-go-related gene (hERG) potassium channel (Q12809 whole entry, looked up): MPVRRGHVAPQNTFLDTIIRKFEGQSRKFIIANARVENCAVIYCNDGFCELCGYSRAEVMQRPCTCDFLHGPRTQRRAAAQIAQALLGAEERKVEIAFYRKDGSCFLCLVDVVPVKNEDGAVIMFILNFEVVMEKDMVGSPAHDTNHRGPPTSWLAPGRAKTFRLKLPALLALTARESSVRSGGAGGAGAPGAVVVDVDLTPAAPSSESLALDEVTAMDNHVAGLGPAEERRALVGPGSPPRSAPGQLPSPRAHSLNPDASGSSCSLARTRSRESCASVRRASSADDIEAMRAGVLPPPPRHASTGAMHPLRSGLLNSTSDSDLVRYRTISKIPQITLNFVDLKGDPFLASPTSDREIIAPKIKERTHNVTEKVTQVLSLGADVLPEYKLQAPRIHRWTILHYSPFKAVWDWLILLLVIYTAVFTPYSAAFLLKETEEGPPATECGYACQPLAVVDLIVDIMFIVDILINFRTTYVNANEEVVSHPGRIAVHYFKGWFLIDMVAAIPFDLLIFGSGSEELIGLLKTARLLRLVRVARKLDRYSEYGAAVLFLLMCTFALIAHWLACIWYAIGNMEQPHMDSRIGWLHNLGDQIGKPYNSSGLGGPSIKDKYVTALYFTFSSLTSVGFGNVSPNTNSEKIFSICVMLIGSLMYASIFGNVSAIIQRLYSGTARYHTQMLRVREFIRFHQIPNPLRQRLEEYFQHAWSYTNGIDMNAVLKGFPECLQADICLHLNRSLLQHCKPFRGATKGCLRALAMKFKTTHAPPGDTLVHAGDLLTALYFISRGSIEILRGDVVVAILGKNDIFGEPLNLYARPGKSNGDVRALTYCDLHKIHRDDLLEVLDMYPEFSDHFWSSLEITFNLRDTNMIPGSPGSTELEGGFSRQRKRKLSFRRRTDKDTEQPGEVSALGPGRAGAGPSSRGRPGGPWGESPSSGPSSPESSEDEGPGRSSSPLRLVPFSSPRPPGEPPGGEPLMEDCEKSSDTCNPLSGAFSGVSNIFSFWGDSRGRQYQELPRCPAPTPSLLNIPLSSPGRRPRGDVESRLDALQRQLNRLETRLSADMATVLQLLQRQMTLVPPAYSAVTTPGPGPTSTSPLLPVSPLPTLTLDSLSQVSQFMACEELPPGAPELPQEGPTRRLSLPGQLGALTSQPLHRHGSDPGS

Point of comparison: `Cc1ccc(N2C(=O)N(CC(=O)N3CCOCC3)C(=O)C2C)cc1` (stereo not drawn), “hERG current change (%, negative = inhibition) at 10uM” value -0.596%. Against it:
- CCCCCCC(=O)Nc1cc2c(C)cc(=O)oc2cc1C — lower, -22.8%
- CCOC(=O)c1cc(C#N)c(SCC(N)=O)[nH]c1=O — higher, 4.81%
- Cc1ccc(NC(=O)CSc2nnc(-c3cnccn3)n2Cc2ccco2)cc1 — lower, -21.3%
- COc1cc(/C=N/NC(=O)c2ccncc2)ccc1OCC(=O)Nc1ccccc1 — lower, -27%
- COc1ccc(S(=O)(=O)n2nc(C)cc2C)c(C)c1C — lower, -8.7%
- O=[N+]([O-])c1ccc(C23CC4CC(CC(O)(C4)C2)C3)cc1 — lower, -37.8%
- CCCCOP(=O)(c1ccc(N(C)C)cc1)C(O)c1cccnc1 (stereo not drawn) — lower, -4.93%
- CCOc1ccccc1NC(=O)NNC(=O)CCc1ccc(OC)cc1 — higher, 7.08%
- CCCS(=O)(=O)c1c(S(=O)(=O)CCC)c2ccc(C(N)=O)cn2c1C(=O)OC — lower, -3.5%
- O=C(CCc1nnc(CCCCc2ccccc2)o1)NC(c1cccnc1)C(F)(F)F (stereo not drawn) — lower, -7.6%
- CC(C)(C)OC(=O)CNC(=O)c1[nH]cnc1C(=O)N[C@@H](CCCCNC(=O)OC(C)(C)C)C(=O)OC(C)(C)C — higher, 3.6%
- COc1cccc(OC)c1C(=O)NCCSC1CCCCC1 — higher, 7.03%
- Cc1cc(C)n2nc(SCC(=O)Nc3ccccc3)nc2n1 — lower, -4.16%
- CCOc1cccc(-c2cc(=O)[nH][nH]2)c1 — higher, 1.58%
- O=C(O)CCCC(=O)NCCCc1ccccc1 — higher, 1.48%
- Cc1ccc(CNC(=O)c2ccc(N3CCc4ccccc43)c([N+](=O)[O-])c2)cc1 — higher, 3.31%
- O=C(O)CNS(=O)(=O)c1ccc2c(c1)CCCC2 — higher, 8.7%
- NS(=O)(=O)c1cccc(NC(=O)COC(=O)CN2C(=O)c3ccccc3C2=O)c1 — lower, -12.2%
- CCc1noc(C)c1C(=O)Nc1nc(-c2cccs2)cs1 — lower, -57%
- O=C(NCCc1c[nH]c2ccccc12)C(=O)NCC1OCCCN1S(=O)(=O)c1ccc(F)cc1 (stereo not drawn) — higher, 18.4%
- CSc1cccc(NS(=O)(=O)c2cccc3nsnc23)c1 — lower, -10.9%
- Cc1ccc(C(=O)Nc2sc(C)c(-c3ccccc3)c2C(N)=O)cc1[N+](=O)[O-] — higher, 6.82%
- O=C(NCCc1ccc(C(F)(F)F)cc1)C1CCC(=O)N(CCc2cccc(F)c2)C1 (stereo not drawn) — lower, -51.4%
